Laboratory results: US8883841B2, “Oncogenic ras-specific cytotoxic compound and methods of use thereof” (The Board of Regents of the University of Texas System, priority 2005, dated 2014)

Assays:
SNB-75 = assay: NCI in-vitro testing, SNB-75 (CNS Cancer)
SK-MEL-2 = assay: NCI in-vitro testing, SK-MEL-2 (Melanoma)
A498 = assay: NCI in-vitro testing, A498 (Renal Cancer)
RXF 393 = assay: NCI in-vitro testing, RXF 393 (Renal Cancer)
LOX IMVI = assay: NCI in-vitro testing, LOX IMVI (Melanoma)
NCI-H226 = assay: NCI in-vitro testing, NCI-H226 (Non-Small Cell Lung Cancer)
COLO 205 = assay: NCI in-vitro testing, COLO 205 (Colon Cancer)
HCT-15 = assay: NCI in-vitro testing, HCT-15 (Colon Cancer)
NCI-H23 = assay: NCI in-vitro testing, NCI-H23 (Non-Small Cell Lung Cancer)
HCC-2998 = assay: NCI in-vitro testing, HCC-2998 (Colon Cancer)
MCF7 = assay: NCI in-vitro testing, MCF7 (Breast Cancer)
HOP-62 = assay: NCI in-vitro testing, HOP-62 (Non-Small Cell Lung Cancer)
HT29 = assay: NCI in-vitro testing, HT29 (Colon Cancer); conditions: HT20
UACC-62 = assay: NCI in-vitro testing, UACC-62 (Melanoma)
OVCAR-4 = assay: NCI in-vitro testing, OVCAR-4 (Ovarian Cancer)
MALME-3M = assay: NCI in-vitro testing, MALME-3M (Melanoma)
SR = assay: NCI in-vitro testing, SR (Leukemia); type: cell-based
SF-268 = assay: NCI in-vitro testing, SF-268 (CNS Cancer)
SW-620 = assay: NCI in-vitro testing, SW-620 (Colon Cancer)
KM12 = assay: NCI in-vitro testing, KM12 (Colon Cancer)
NCI/ADR-RES = assay: NCI in-vitro testing, NCI/ADR-RES (Breast Cancer)
[1] = Log10 Concentration −4.0 (Molar)
[2] = Log10 Concentration −5.0 (Molar)
[3] = Log10 Concentration −6.0 (Molar)
[4] = Log10 Concentration −7.0 (Molar)
[5] = Log10 Concentration −8.0 (Molar)

OCc1cn(Cc2ccc(Cl)cc2)c2ccccc12 [Oncrasin K060, 1H-Indole-3-methanol, 1-[(4-chlorophenyl)methyl]-]
Mean Optical Densities (SNB-75; [1]): 0.171 | Mean Optical Densities (SNB-75; [2]): 0.846 | Mean Optical Densities (SNB-75; [3]): 1.193 | Mean Optical Densities (SNB-75; [4]): 1.227 | Mean Optical Densities (SNB-75; [5]): 1.223 | Mean Optical Densities (SK-MEL-2; [1]): 0.287 | Mean Optical Densities (SK-MEL-2; [2]): 0.640 | Mean Optical Densities (SK-MEL-2; [3]): 1.172 | Mean Optical Densities (SK-MEL-2; [4]): 1.285 | Mean Optical Densities (SK-MEL-2; [5]): 1.341 | Mean Optical Densities (A498; [1]): 0.056 | Mean Optical Densities (A498; [2]): 0.048 | Mean Optical Densities (A498; [3]): 0.120 | Mean Optical Densities (A498; [4]): 0.408 | Mean Optical Densities (A498; [5]): 1.394 | Mean Optical Densities (RXF 393; [1]): 0.041 | Mean Optical Densities (RXF 393; [2]): 0.186 | Mean Optical Densities (RXF 393; [3]): 0.237 | Mean Optical Densities (RXF 393; [4]): 0.295 | Mean Optical Densities (RXF 393; [5]): 0.380 | Mean Optical Densities (LOX IMVI; [1]): 0.053 | Mean Optical Densities (LOX IMVI; [2]): 0.814 | Mean Optical Densities (LOX IMVI; [3]): 2.024 | Mean Optical Densities (LOX IMVI; [4]): 2.007 | Mean Optical Densities (LOX IMVI; [5]): 2.124 | Mean Optical Densities (NCI-H226; [1]): 0.168 | Mean Optical Densities (NCI-H226; [2]): 0.151 | Mean Optical Densities (NCI-H226; [3]): 0.182 | Mean Optical Densities (NCI-H226; [4]): 0.375 | Mean Optical Densities (NCI-H226; [5]): 0.884 | Mean Optical Densities (COLO 205; [1]): 0.047 | Mean Optical Densities (COLO 205; [2]): 0.295 | Mean Optical Densities (COLO 205; [3]): 0.533 | Mean Optical Densities (COLO 205; [4]): 0.839 | Mean Optical Densities (COLO 205; [5]): 0.873 | Mean Optical Densities (HCT-15; [1]): 0.214 | Mean Optical Densities (HCT-15; [2]): 0.597 | Mean Optical Densities (HCT-15; [3]): 1.238 | Mean Optical Densities (HCT-15; [4]): 1.514 | Mean Optical Densities (HCT-15; [5]): 1.635 | Mean Optical Densities (NCI-H23; [1]): 0.141 | Mean Optical Densities (NCI-H23; [2]): 0.807 | Mean Optical Densities (NCI-H23; [3]): 0.865 | Mean Optical Densities (NCI-H23; [4]): 0.975 | Mean Optical Densities (NCI-H23; [5]): 1.059 | Mean Optical Densities (HCC-2998; [1]): 0.012 | Mean Optical Densities (HCC-2998; [2]): 0.740 | Mean Optical Densities (HCC-2998; [3]): 0.887 | Mean Optical Densities (HCC-2998; [4]): 1.088 | Mean Optical Densities (HCC-2998; [5]): 1.162 | Mean Optical Densities (MCF7; [1]): 0.340 | Mean Optical Densities (MCF7; [2]): 0.509 | Mean Optical Densities (MCF7; [3]): 0.551 | Mean Optical Densities (MCF7; [4]): 1.146 | Mean Optical Densities (MCF7; [5]): 1.653 | Mean Optical Densities (HOP-62; [1]): 0.290 | Mean Optical Densities (HOP-62; [2]): 0.569 | Mean Optical Densities (HOP-62; [3]): 0.756 | Mean Optical Densities (HOP-62; [4]): 0.985 | Mean Optical Densities (HOP-62; [5]): 1.182 | Mean Optical Densities (HT29; [1]): 0.090 | Mean Optical Densities (HT29; [2]): 0.725 | Mean Optical Densities (HT29; [3]): 1.183 | Mean Optical Densities (HT29; [4]): 1.533 | Mean Optical Densities (HT29; [5]): 1.910 | Mean Optical Densities (UACC-62; [1]): 0.041 | Mean Optical Densities (UACC-62; [2]): 0.383 | Mean Optical Densities (UACC-62; [3]): 0.715 | Mean Optical Densities (UACC-62; [4]): 1.238 | Mean Optical Densities (UACC-62; [5]): 1.885 | Mean Optical Densities (OVCAR-4; [1]): 0.294 | Mean Optical Densities (OVCAR-4; [2]): 0.487 | Mean Optical Densities (OVCAR-4; [3]): 0.553 | Mean Optical Densities (OVCAR-4; [4]): 0.950 | Mean Optical Densities (OVCAR-4; [5]): 1.135 | Mean Optical Densities (MALME-3M; [1]): 0.217 | Mean Optical Densities (MALME-3M; [2]): 0.592 | Mean Optical Densities (MALME-3M; [3]): 0.704 | Mean Optical Densities (MALME-3M; [4]): 0.760 | Mean Optical Densities (MALME-3M; [5]): 0.742 | Mean Optical Densities (SR; [1]): 0.167 | Mean Optical Densities (SR; [2]): 0.474 | Mean Optical Densities (SR; [3]): 0.166 | Mean Optical Densities (SR; [4]): 0.429 | Mean Optical Densities (SR; [5]): 0.818 | Mean Optical Densities (SF-268; [1]): 0.238 | Mean Optical Densities (SF-268; [2]): 0.859 | Mean Optical Densities (SF-268; [3]): 1.179 | Mean Optical Densities (SF-268; [4]): 1.215 | Mean Optical Densities (SF-268; [5]): 1.294 | Mean Optical Densities (SW-620; [1]): 0.116 | Mean Optical Densities (SW-620; [2]): 0.423 | Mean Optical Densities (SW-620; [3]): 0.732 | Mean Optical Densities (SW-620; [4]): 1.298 | Mean Optical Densities (SW-620; [5]): 1.444 | Mean Optical Densities (KM12; [1]): 0.156 | Mean Optical Densities (KM12; [2]): 1.236 | Mean Optical Densities (KM12; [3]): 1.387 | Mean Optical Densities (KM12; [4]): 1.495 | Mean Optical Densities (KM12; [5]): 1.441 | Mean Optical Densities (NCI/ADR-RES; [1]): 0.192 | Mean Optical Densities (NCI/ADR-RES; [2]): 0.744 | Mean Optical Densities (NCI/ADR-RES; [3]): 1.045 | Mean Optical Densities (NCI/ADR-RES; [4]): 1.117 | Mean Optical Densities (NCI/ADR-RES; [5]): 1.191
